Measurements from PubChem BioAssay AID1347165 (National Center for Advancing Translational Sciences (NCATS), 2019).
Where “and” joins values, the source holds several entries; their conditions need not be identical. Identical values can stand only once. Among all 220,000 compounds or so, about 5,700 (2.6%) were called active. The inconclusive results got no clear call from the source; some entries with a clear call stand among them for comparison. Calls come from the whole dose curve; as a rule, active = well fitted inhibition curve with a large enough effect; inconclusive = small, poorly fitted or top-dose-only effect; inactive = no such curve, though single readings can be large or run the other way. A potency beside an inconclusive call is a rough fit, not a confirmed value.

molecular target: Lysine-specific demethylase 5B (Homo sapiens) (UniProt Q9UGL1); experiment: Primary screen for KDM5B Histone Demethylases FDH-coupled qHTS; settings: FDH-coupled NADH fluorescence (FDH is formaldehyde dehydrogenase); activity change, negative = inhibition: at 57.7 µM (top of the series) unless noted; note: nearly all actives have a fitted effect of over 70% in size; for activity change, negative = inhibition: 0% is about no effect
UniProt Q9UGL1, sequence (Q9UGL1 whole entry, looked up): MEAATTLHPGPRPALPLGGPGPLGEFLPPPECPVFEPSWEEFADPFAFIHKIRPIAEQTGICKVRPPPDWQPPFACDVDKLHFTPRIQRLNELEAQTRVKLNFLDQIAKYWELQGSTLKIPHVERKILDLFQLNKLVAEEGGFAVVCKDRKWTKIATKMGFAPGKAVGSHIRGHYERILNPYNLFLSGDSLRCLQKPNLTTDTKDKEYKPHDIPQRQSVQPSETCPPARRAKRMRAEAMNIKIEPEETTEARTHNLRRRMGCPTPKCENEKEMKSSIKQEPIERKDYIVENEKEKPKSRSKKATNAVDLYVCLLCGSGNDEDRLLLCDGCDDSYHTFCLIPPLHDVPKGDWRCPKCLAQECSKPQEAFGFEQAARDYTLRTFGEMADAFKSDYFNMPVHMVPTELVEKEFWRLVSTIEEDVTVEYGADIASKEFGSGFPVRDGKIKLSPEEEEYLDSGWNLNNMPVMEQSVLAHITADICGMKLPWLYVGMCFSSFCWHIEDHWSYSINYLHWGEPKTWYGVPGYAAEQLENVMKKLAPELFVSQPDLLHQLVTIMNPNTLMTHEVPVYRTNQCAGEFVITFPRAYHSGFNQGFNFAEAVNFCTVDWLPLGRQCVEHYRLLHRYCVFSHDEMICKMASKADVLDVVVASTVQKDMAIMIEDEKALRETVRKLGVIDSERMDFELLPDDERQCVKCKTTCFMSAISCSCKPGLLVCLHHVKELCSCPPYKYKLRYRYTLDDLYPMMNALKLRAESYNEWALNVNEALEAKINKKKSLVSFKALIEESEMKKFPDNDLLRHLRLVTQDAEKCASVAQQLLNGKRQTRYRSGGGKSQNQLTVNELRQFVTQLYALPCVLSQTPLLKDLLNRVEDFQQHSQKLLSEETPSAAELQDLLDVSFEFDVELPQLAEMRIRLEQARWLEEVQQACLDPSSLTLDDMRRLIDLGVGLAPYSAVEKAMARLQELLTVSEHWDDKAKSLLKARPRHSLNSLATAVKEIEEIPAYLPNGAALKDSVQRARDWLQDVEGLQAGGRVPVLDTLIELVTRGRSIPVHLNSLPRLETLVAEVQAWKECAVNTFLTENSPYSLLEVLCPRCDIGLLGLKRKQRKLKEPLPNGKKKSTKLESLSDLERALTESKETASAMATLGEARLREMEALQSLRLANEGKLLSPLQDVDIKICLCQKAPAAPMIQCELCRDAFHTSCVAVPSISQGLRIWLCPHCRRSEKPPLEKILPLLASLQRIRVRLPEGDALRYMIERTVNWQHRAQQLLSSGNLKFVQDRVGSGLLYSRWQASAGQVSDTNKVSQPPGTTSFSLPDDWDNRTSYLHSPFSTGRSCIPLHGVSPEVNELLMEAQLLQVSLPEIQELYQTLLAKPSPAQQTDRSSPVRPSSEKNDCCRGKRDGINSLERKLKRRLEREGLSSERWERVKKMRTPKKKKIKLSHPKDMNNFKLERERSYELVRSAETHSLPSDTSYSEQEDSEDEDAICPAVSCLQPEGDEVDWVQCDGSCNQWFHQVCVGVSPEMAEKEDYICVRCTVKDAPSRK
Method in brief: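 Coupled FDH/NAD⁺ fluorescence readout. KDM5BΔAP 200 nM final; compound titration, 10 min RT preincubation; substrate mix 12.5 µM H3K4me3, 25 µM 2-OG, 50 µM Fe(II), 100 µM ascorbate, 0.25 mM NAD⁺, 0.25 U/mL FDH; ΔRFU over 30 min.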
Potency is the fitted concentration of half-maximal effect; tags give direction and shape of the fitted curve.

Row | SMILES | Potency | activity change, negative = inhibition
1 | CCN(CC)CCNC(=O)c1cc(-c2ccc(Br)s2)nc2ccccc12 | inconclusive: 35.5 µM [inhibitor, partial curve, poor fit] | –
2 | COc1ccc(N2CC(c3noc(-c4ccc(F)cc4)n3)CC2=O)cc1OC (stereo not drawn) | – | inactive: -12.7%
3 | Cc1nc([C@H]2CCN(Cc3ccc(F)c(F)c3)C[C@H]2NC(=O)C2CC2)n[nH]1 | – | inactive: 8.77%
4 | CCOc1ccc(CC(=O)N2CCC(Cc3nc(-c4cnccn4)no3)CC2)cc1 | – | inactive: 14.8%
5 | CC(=O)N1CCN(c2cc(-c3ccc(Cl)cc3)nc3c(C)noc23)CC1 | – | inactive: -7.96% [at 86.2 µM]
6 | CN(C)C(=O)Cc1c[nH]c2ncc(-c3cccnc3)cc12 | – | inactive: -9.94% [at 115 µM]
7 | COCCn1c(C)cc(C(=O)N2CCCC(Cc3noc(-c4cnccn4)n3)C2)c1C (stereo not drawn) | inconclusive: 22.4 µM [inhibitor, single point] | –
8 | CN1CCN(c2ccc(-c3n[nH]c4c3CC(=O)N(CC3CC3)C4)cc2)CC1 | inconclusive: 44.7 µM [inhibitor, partial curve, poor fit] | –
9 | Cc1nn(C)c(C)c1-c1ccnc(NCCC2(O)CCN(C)CC2)n1 | inconclusive: 28.2 µM [inhibitor, partial curve, poor fit] | –
10 | COCCN(C)C[C@@H]1CN(C(=O)c2ccc(-c3ccco3)cc2)C[C@@H]1CO | active: 31.6 µM | –
11 | COCCN1Cc2nc(Nc3ccc(F)c(Cl)c3)ccc2OCC1=O | – | inactive: -24.8% [at 86.2 µM]
12 | CCN(CC)CCNC(=O)C1CCN(c2cc(C)nc3c(-c4ccc(Cl)cc4)c(C)nn23)CC1 | inconclusive: 8.91 µM [inhibitor, partial curve, poor fit] | –
13 | Cc1ccc(NC(=O)N[C@@H](CC(C)C)C(=O)O)cc1Cl | – | inactive: 10.6%
14 | O=C(OCc1cc(=O)oc2cc(O)ccc12)c1n[nH]c2ccccc12 | inconclusive: 20 µM [inhibitor, partial curve, poor fit] | –
15 | C[S+](=O)([O-])N1CC2(CCCN2CC2CC2)Cc2ccccc21 (stereo not drawn) | inconclusive: 50.1 µM [inhibitor, partial curve, poor fit] | –
16 | CCCCC(=O)OC1=C(C(C)=O)N(Cc2ccccc2)S(=O)(=O)c2ccccc21 | inconclusive: 35.5 µM [inhibitor, single point] | –
17 | COc1ccc2oc(C(=O)OCC(=O)Nc3ccc(C(=O)N(C)C)cc3)c(C)c2c1 | inconclusive: 1.78 µM [inhibitor, full curve, poor fit] and inconclusive: 28.2 µM [inhibitor, partial curve, poor fit] | –
18 | CCn1c(C)c(CCC(=O)NCCN2CCN(C)CC2)c(=O)n2nc(-c3ccccc3OC)cc12 | inconclusive: 25.1 µM [inhibitor, partial curve, poor fit] | –
